From publication PMC6919601, “Identification of Plasmodium dipeptidyl aminopeptidase allosteric inhibitors by high throughput screening” (PLoS ONE, 2019) come the findings set out here.

The whole screen tested about 110,000 compounds, of which about 230 (0.21%) showed an effect of 50% or more. This is one part of the list.
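Also: 30 min substrate incubation versus DMSO and 10 µM JCP410 controls.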

Sequence of DPAP1 (Q8IIJ9 whole entry, looked up): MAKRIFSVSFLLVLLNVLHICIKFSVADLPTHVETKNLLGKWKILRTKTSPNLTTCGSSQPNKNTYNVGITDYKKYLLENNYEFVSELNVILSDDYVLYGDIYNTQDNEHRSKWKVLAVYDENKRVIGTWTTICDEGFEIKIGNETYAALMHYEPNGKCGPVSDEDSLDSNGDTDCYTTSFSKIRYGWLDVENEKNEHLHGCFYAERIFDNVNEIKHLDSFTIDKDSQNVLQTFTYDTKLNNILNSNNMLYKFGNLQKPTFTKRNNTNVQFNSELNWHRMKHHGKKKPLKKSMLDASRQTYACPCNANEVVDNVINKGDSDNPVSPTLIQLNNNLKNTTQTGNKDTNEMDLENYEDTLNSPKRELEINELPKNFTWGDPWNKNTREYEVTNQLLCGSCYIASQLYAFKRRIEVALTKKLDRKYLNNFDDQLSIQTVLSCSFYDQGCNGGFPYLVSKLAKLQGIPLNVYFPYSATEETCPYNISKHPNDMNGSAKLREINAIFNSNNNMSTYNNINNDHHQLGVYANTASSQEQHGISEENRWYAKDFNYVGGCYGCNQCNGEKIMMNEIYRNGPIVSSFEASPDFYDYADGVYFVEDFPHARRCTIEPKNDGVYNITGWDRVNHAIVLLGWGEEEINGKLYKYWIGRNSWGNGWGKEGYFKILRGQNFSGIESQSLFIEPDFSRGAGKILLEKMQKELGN

This test concerns the target DPAP1 (Plasmodium falciparum, UniProt Q8IIJ9). Description: primary screen, percent inhibition; read by cleavage of a fluorogenic dipeptide substrate; higher = more effect of the substance. On the set-up: species or system P. falciparum D10 trophozoite lysates; single well.
For the compound `Cc1nn(-c2ccccc2)c2sc(C(N)=O)cc12`, the “% Inhibition @ 10 uM” value is 6.83%.

Regarding `CCc1nn(CC(=O)NC(C)CC)c(=O)c2cccn12` (stereo not drawn), the “% Inhibition @ 10 uM” value is recorded as -4.93%.

Take `COCCN1C(=O)c2ccccc2C(C(=O)NCCCN2CCOCC2)C1c1cccs1` (stereo not drawn): the “% Inhibition @ 10 uM” value is -7.99%.

As to `OC1C2CN3CCN(C2)CC1(Cc1ccccc1)C3` (stereo not drawn), the “% Inhibition @ 10 uM” value was -3.6%.

In the case of `CC(C)N(CCc1ccncc1)C(=S)NC1CCCCC1`, the “% Inhibition @ 10 uM” value is on record as 3.93%.

For `Cc1cccc(C(=O)NCc2ccc3c(c2)OCO3)c1`, the “% Inhibition @ 10 uM” value is recorded as -3.37%.

In the case of `Cc1cc(C)nc(NC(=O)Nc2ccc(Cl)cc2)n1`, the “% Inhibition @ 10 uM” value is listed as -2.81%.

Regarding `Nc1ncnc2[nH]c(SCC(=O)NCc3ccco3)nc12`, the “% Inhibition @ 10 uM” value was -0.45%.

In the case of `Cc1cccc(-c2noc(CCC(=O)NCC3CCCO3)n2)c1` (stereo not drawn), the “% Inhibition @ 10 uM” value turned out to be 4.47%.

With `Cc1ccc(/C=C2/NC(=O)N(Cc3ccccc3F)C2=O)o1`, the “% Inhibition @ 10 uM” value is reported as -3.65%.

For the compound `CC1(c2ccc(Cl)cc2)N=C(c2ccccc2)C(=S)N1` (stereo not drawn), the “% Inhibition @ 10 uM” value amounted to 4.07%.

On to `C#CCOc1ccc(C=C2C(=O)OC(C)(C(C)(C)C)OC2=O)cc1` (stereo not drawn), for which the “% Inhibition @ 10 uM” value was found to be 0.275%.

`N#C/C(=C\c1c(Oc2ccccc2)nc2ccccn2c1=O)C(=O)NCC1CCCO1` (stereo not drawn): the “% Inhibition @ 10 uM” value is 4.99%.

Consider `N#Cc1nc(-c2ccccc2)cc(-c2ccccc2)n1`, for which the “% Inhibition @ 10 uM” value was determined as 4.38%.

For `CCSc1nnc2c(=O)n(C)c(=O)n(C)c2n1`, the “% Inhibition @ 10 uM” value is given as -10.7%.

On to `COc1ccc(CCn2c(C)cc3c(c2=O)C(c2cccc(Cl)c2)C(C#N)=C(N)O3)cc1OC` (stereo not drawn), for which the “% Inhibition @ 10 uM” value is listed as -4.78%.

Take `CCOC(=O)C1=C(C)N=c2s/c(=C/c3ccc(OC)cc3)c(=O)n2C1/C=C/c1ccccc1` (stereo not drawn): the “% Inhibition @ 10 uM” value was 0.997%.

With `O=C(COc1ccc(Cl)cc1)Nc1ccccc1C(=O)Nc1ccccc1`, the “% Inhibition @ 10 uM” value is recorded as -1.49%.

Consider `Cc1c(C(=O)O)cnn1-c1ccccc1`, for which the “% Inhibition @ 10 uM” value turned out to be 2.39%.

On to `CCCCC/C=C/C(=O)Nc1nc2ccc(OCC)cc2s1`, for which the “% Inhibition @ 10 uM” value turned out to be 1.13%.

Take `Cc1nnc2c(N3CC=C(c4ccccc4)CC3)nc3ccccc3n12`: the “% Inhibition @ 10 uM” value was found to be 3.4%.

On to `O=C(O)C1C2CCC(C2)C1C(=O)Nc1ccc(F)c(Cl)c1` (stereo not drawn), for which the “% Inhibition @ 10 uM” value is 5.6%.

For the compound `COCCNC(=O)Cn1ncc2c3cc(C)ccc3nc-2c1O`, the “% Inhibition @ 10 uM” value came to 2.42%.

For the compound `COc1ccc(-c2noc(CSc3nc4cc(C)ccc4[nH]3)n2)cc1OC`, the “% Inhibition @ 10 uM” value was -1.11%.

For `Cc1ccc(NC(=O)Cc2noc3ccccc23)nc1`, the “% Inhibition @ 10 uM” value is given as 0.0845%.

With `COc1ccc(Cn2c(CCC(=O)NC3CCCC3)nc3cccnc32)cc1`, the “% Inhibition @ 10 uM” value is on record as -2.88%.

With `COc1ccc(C2c3c(-c4ccccc4O)n[nH]c3C(=O)N2CCCO)cc1` (stereo not drawn), the “% Inhibition @ 10 uM” value is reported as -1.35%.

In the case of `O=C(Nc1ccc(Cl)cc1[N+](=O)[O-])c1cc2ccccc2cc1O`, the “% Inhibition @ 10 uM” value is -1.25%.

Regarding `CCC(NC1C=CS(=O)(=O)C1)C(=O)O` (stereo not drawn), the “% Inhibition @ 10 uM” value was -7.25%.

As for `CCCCSc1nc(O)cc(O)n1`, the “% Inhibition @ 10 uM” value is recorded as -0.856%.

`O=C1CC(c2cc3c(cc2Br)OCO3)c2cc3c(cc2N1)OCO3` (stereo not drawn): the “% Inhibition @ 10 uM” value was -0.891%.

Take `CCCC(=O)Nc1sc(Cc2ccccc2)c(C)c1C(N)=O`: the “% Inhibition @ 10 uM” value worked out at 1.94%.

For the compound `CC(C)C[C@H](/N=c1\cc(O)oc2ccccc12)C(=O)NCC#N`, the “% Inhibition @ 10 uM” value is on record as -6.56%.

`C=CCn1c2ccccc2c2nnc(SCC(=O)c3ccccc3)nc21`: the “% Inhibition @ 10 uM” value is on record as -6.6%.

Regarding `Cc1cc(C(=O)C(=O)Nc2nnc(-c3cccnc3)s2)c(C)n1-c1ccccc1F`, the “% Inhibition @ 10 uM” value is 3.92%.

On to `CCCCNC(=O)C1CCCN(c2nc3ccccc3o2)C1` (stereo not drawn), for which the “% Inhibition @ 10 uM” value is 2.05%.

In the case of `O=C(CSc1nc2ccsc2c(=O)n1Cc1ccc(C(=O)O)cc1)Nc1nccs1`, the “% Inhibition @ 10 uM” value is recorded as 0.4%.

`COc1ccc(CN2CCN(Cc3ccc(SC)cc3)CC2)cc1`: the “% Inhibition @ 10 uM” value is given as -0.725%.

`COc1ccc(C2CC(=O)C3=C(C2)NC(=O)CC3c2ccc(O)cc2)cc1` (stereo not drawn): the “% Inhibition @ 10 uM” value is 0.8%.

Turning to `Clc1ccc(N2CCN(CC3CCCCC3)CC2)cc1`, the “% Inhibition @ 10 uM” value is listed as -1.64%.

As for `Cc1ccc(CN2CCN(C(=S)NCC(=O)NCc3cccnc3)CC23CCCCC3)cc1`, the “% Inhibition @ 10 uM” value is on record as -1.21%.

Turning to `CCOC(=O)N1CCC(NCCN2CCOCC2)CC1`, the “% Inhibition @ 10 uM” value is given as 0.565%.

`CCCNC(=O)c1cc(-c2ccc3c(c2)OCO3)on1`: the “% Inhibition @ 10 uM” value is -6.45%.

Take `O=C(c1cc2cc(Cl)ccc2oc1=O)N1CCC(Cc2ccccc2)CC1`: the “% Inhibition @ 10 uM” value is reported as -2.79%.

Take `Cc1cccc(Cn2nnc3c(O)nc(C4CCN(C(=O)c5ccccc5Cl)CC4)nc32)c1`: the “% Inhibition @ 10 uM” value was 3.81%.

As to `CC1=C(C(=O)Nc2cccc(C)n2)C(c2ccsc2)C2=C(O)CCCC2=N1` (stereo not drawn), the “% Inhibition @ 10 uM” value is -4.4%.

Turning to `CC(NC(=O)Cn1nnc(-c2ccccc2F)n1)c1ccccc1` (stereo not drawn), the “% Inhibition @ 10 uM” value was -1.24%.

For `O=C1CC(c2ccc(Cl)cc2)CC(=O)C1=CNCCc1ccccc1` (stereo not drawn), the “% Inhibition @ 10 uM” value was determined as 1.57%.

Take `Cc1cc(C)c(-n2nnnc2SCC(=O)Nc2nccs2)c(C)c1`: the “% Inhibition @ 10 uM” value is -1.24%.

As to `C=CCNc1nc(Nc2cccc3ccccc23)nc(OC(C(F)(F)F)C(F)(F)F)n1`, the “% Inhibition @ 10 uM” value is recorded as -1.76%.

As to `N#CCNC(=O)C(CS(=O)(=O)Cc1ccccc1)CS(=O)(=O)Cc1ccccc1`, the “% Inhibition @ 10 uM” value is -0.214%.
